IC50 is the fitted dose that halves viability relative to control wells, and lower means more sensitive; where the fit passes the top or lowest dose, that dose stands as a limit. AUC, from the same fit, is the share of area under the viability curve across the 256-fold dose range; it is 1 without any effect and falls as sensitivity rises. For some of these results: The top dose, if marked as inferred, comes from the curve model; the source does not state it. For some of these results: Where an entry number is given, a second screen of the drug exists; the two often differ.
Columns and labels:
Assay in all cases: Viability of human cancer cell lines after 72 h of drug (GDSC screen)
Thapsigargin = compound: C/C=C(/C)C(=O)O[C@H]1C(C)=C2[C@H]([C@@H]1OC(=O)CCCCCCC)[C@@](C)(OC(C)=O)C[C@H](OC(=O)CCC)[C@@]1(O)[C@H]2OC(=O)[C@@]1(C)O [Thapsigargin]; details: top dose 0.512 µM; top dose inferred
Method: (§1)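 Human cancer cell lines in 384-well plates, medium with 10% serum, drug for 72 h over a 256-fold dose range (nine 2-fold or five 4-fold steps up to the top dose). Adherent lines were fixed and stained with the nucleic acid dye Syto60, suspension lines read with resazurin; signal relative to control wells, capped at 0 and 100%. One two-parameter sigmoid per drug and line, fitted in a mixed model over all curves with the slope shared within a line.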

QL-X-138 = compound: C=CC(=O)Nc1cc(-n2c(=O)ccc3cnc4ccc(-c5cn[nH]c5)cc4c32)ccc1C [QL-X-138]; details: top dose 10.24 µM; top dose inferred
Method: as §1

GSK269962A = compound: CCn1c(-c2nonc2N)nc2cnc(Oc3cccc(NC(=O)c4ccc(OCCN5CCOCC5)cc4)c3)cc21 [GSK269962A]; details: top dose 5 µM; screen: GDSC drug entry 1192; top dose inferred
Method: as §1

MPS-1-IN-1 = compound: COc1cc(N2CCC(O)CC2)ccc1Nc1cc(Nc2ccccc2S(=O)(=O)C(C)C)c2cc[nH]c2n1 [MPS-1-IN-1]; details: top dose 20 µM; top dose inferred
Method: as §1

(5Z)-7-Oxozeaenol = compound: COc1cc(O)c2c(c1)/C=C/C[C@H](O)[C@H](O)C(=O)/C=C\C[C@H](C)OC2=O [(5Z)-7-Oxozeaenol]; details: top dose 10 µM; top dose inferred
Method: as §1

CP466722 = compound: COc1cc2ncnc(-n3nc(-c4ccccn4)nc3N)c2cc1OC [CP466722]; details: top dose 16 µM; top dose inferred
Method: as §1

Zibotentan = compound: COc1nc(C)cnc1NS(=O)(=O)c1cccnc1-c1ccc(-c2nnco2)cc1 [Zibotentan]; details: top dose 20 µM; top dose inferred
Method: as §1

ABT-888 = compound: C[C@]1(c2nc3c(C(N)=O)cccc3[nH]2)CCCN1 [ABT-888]; details: top dose 5 µM; top dose inferred
Method: as §1

ABT-869 = compound: Cc1ccc(F)c(NC(=O)Nc2ccc(-c3cccc4[nH]nc(N)c34)cc2)c1 [ABT-869]; details: top dose 1.024 µM; top dose inferred
Method: as §1

CHIR-99021 = compound: Cc1cnc(-c2cnc(NCCNc3ccc(C#N)cn3)nc2-c2ccc(Cl)cc2Cl)[nH]1 [CHIR-99021]
Method: as §1

Cytarabine = compound: Nc1ccn([C@@H]2O[C@H](CO)[C@@H](O)[C@@H]2O)c(=O)n1 [Cytarabine]; details: top dose 2 µM
Method: as §1

KU-55933 = compound: O=c1cc(-c2cccc3c2Sc2ccccc2S3)oc(N2CCOCC2)c1 [KU-55933]; details: top dose 10 µM
Method: as §1

[1] = top dose 2.56 µM, screen: GDSC drug entry 154
[2] = top dose 10 µM, screen: GDSC drug entry 1241, top dose inferred

Cell Line | AUC (Thapsigargin) | IC50 (Thapsigargin) [µM] | AUC (QL-X-138) | IC50 (QL-X-138) [µM] | AUC (GSK269962A) | IC50 (GSK269962A) [µM] | AUC (MPS-1-IN-1) | IC50 (MPS-1-IN-1) [µM] | AUC ((5Z)-7-Oxozeaenol) | IC50 ((5Z)-7-Oxozeaenol) [µM] | AUC (CP466722) | IC50 (CP466722) [µM] | AUC (Zibotentan) | IC50 (Zibotentan) [µM] | AUC (ABT-888) | IC50 (ABT-888) [µM] | AUC (ABT-869) | IC50 (ABT-869) [µM] | AUC (CHIR-99021; [1]) | IC50 (CHIR-99021; [1]) [µM] | AUC (CHIR-99021; [2]) | IC50 (CHIR-99021; [2]) [µM] | AUC (Cytarabine) | IC50 (Cytarabine) [µM] | AUC (KU-55933) | IC50 (KU-55933) [µM]
NCI-H2347 (lung adenocarcinoma, adherent) | 0.334 | 0.00996 | 0.869 | > 10.2 | 0.933 | > 5 | 0.847 | 19.7 | 0.526 | 0.747 | 0.775 | 7.72 | 0.978 | > 20 | 0.983 | > 5 | 0.97 | > 1.02 | 0.983 | > 2.56 | 0.973 | > 10 | 0.843 | 1.89 | 0.949 | > 10
NCI-H2405 (lung adenocarcinoma, adherent) | 0.165 | 0.00265 | 0.822 | 6.84 | 0.815 | 3.14 | 0.968 | > 20 | 0.529 | 0.754 | 0.769 | 6.68 | 0.982 | > 20 | 0.986 | > 5 | 0.983 | > 1.02 | 0.974 | > 2.56 | 0.955 | > 10 | 0.882 | > 2 | 0.979 | > 10
NCI-H2444 (non-small cell lung carcinoma, adherent) | 0.988 | > 0.512 | 0.988 | > 10.2 | 0.987 | > 5 | 0.95 | > 20 | 0.815 | 6.44 | 0.971 | > 16 | 0.981 | > 20 | 0.985 | > 5 | 0.987 | > 1.02 | 0.94 | > 2.56 | 0.97 | > 10 | 0.901 | > 2 | 0.961 | > 10
NCI-H2452 (mesothelioma, adherent) | 0.983 | > 0.512 | 0.984 | > 10.2 | 0.848 | 4.86 | 0.984 | > 20 | 0.66 | 1.9 | 0.984 | > 16 | 0.984 | > 20 | 0.984 | > 5 | 0.981 | > 1.02 | 0.861 | > 2.56 | 0.794 | 5.63 | 0.874 | > 2 | 0.942 | > 10
NUGC-4 (stomach, adherent) | 0.07 | < 0.002 | 0.917 | > 10.2 | 0.959 | > 5 | 0.804 | 10 | 0.608 | 1.24 | 0.933 | > 16 | 0.987 | > 20 | 0.979 | > 5 | 0.985 | > 1.02 | 0.986 | > 2.56 | 0.917 | > 10 | 0.967 | > 2 | 0.982 | > 10
NY (osteosarcoma, adherent) | 0.095 | < 0.002 | 0.966 | > 10.2 | 0.944 | > 5 | 0.989 | > 20 | 0.708 | 2.39 | 0.959 | > 16 | 0.989 | > 20 | 0.974 | > 5 | 0.989 | > 1.02 | 0.935 | > 2.56 | 0.859 | 8.11 | 0.819 | 1.12 | 0.899 | > 10
OAW-42 (ovary, adherent) | 0.454 | 0.0237 | 0.847 | 8.48 | 0.945 | > 5 | 0.976 | > 20 | 0.515 | 0.691 | 0.867 | > 16 | 0.984 | > 20 | 0.984 | > 5 | 0.984 | > 1.02 | 0.986 | > 2.56 | 0.957 | > 10 | 0.825 | 1.33 | 0.956 | > 10
OE19 (oesophagus, adherent) | 0.52 | – | 0.984 | > 10.2 | 0.899 | > 5 | 0.986 | > 20 | 0.832 | 7.56 | 0.972 | > 16 | 0.985 | > 20 | 0.973 | > 5 | 0.984 | > 1.02 | 0.894 | > 2.56 | 0.885 | > 10 | 0.779 | 0.931 | 0.967 | > 10
OE21 (oesophagus, adherent) | 0.166 | < 0.002 | 0.943 | > 10.2 | 0.874 | > 5 | 0.936 | > 20 | 0.744 | 4.16 | 0.935 | > 16 | 0.975 | > 20 | 0.944 | > 5 | 0.972 | > 1.02 | 0.939 | > 2.56 | 0.931 | > 10 | 0.773 | 1.09 | 0.915 | > 10
OE33 (oesophagus, adherent) | 0.386 | 0.0146 | 0.907 | > 10.2 | 0.957 | > 5 | 0.889 | > 20 | 0.706 | 2.68 | 0.925 | > 16 | 0.978 | > 20 | 0.974 | > 5 | 0.969 | > 1.02 | 0.976 | > 2.56 | 0.9 | > 10 | 0.777 | 0.964 | 0.959 | > 10
